# Measured values from article PMC4985162, “Polarized Exocytosis Induces Compensatory Endocytosis by Sec4p-Regulated Cortical Actin Polymerization” (PLoS Biology, 2016).
# B1: ^35[S]-labeled Las17p-Myc (natural protein)
# chain: not shown
# modifications: ^35S-labeled
# notes: Las17p (Bee1p), yeast Wiskott-Aldrich syndrome protein homologue, S. cerevisiae; In the functional row the Las17p of the test was bacterially expressed GST-Las17p, not this construct; also called ^35S-Las17p; radiolabeled Las17p; source: in vitro translated (TNT T7 Coupled Reticulocyte Lysate System, Promega); not shown: Myc, C-terminal, kept
# Biological target: T1, glutathione S-transferase (GST)-Sec4p (S. cerevisiae, UniProt P07560 1-215)
# T1 construct: Sec4p, yeast Rab GTPase, S. cerevisiae; Stripped of nucleotide with EDTA, then loaded with 1.5 mM GTPγS or 1.5 mM GDP before the assay; also called GTPγS-GST-Sec4p; GTPγS-Sec4p; source: E. coli BL21(DE3) RIL, purified and immobilized on magnetic glutathione beads; not shown: GST, N-terminal, kept
# T1 sequence (looked up): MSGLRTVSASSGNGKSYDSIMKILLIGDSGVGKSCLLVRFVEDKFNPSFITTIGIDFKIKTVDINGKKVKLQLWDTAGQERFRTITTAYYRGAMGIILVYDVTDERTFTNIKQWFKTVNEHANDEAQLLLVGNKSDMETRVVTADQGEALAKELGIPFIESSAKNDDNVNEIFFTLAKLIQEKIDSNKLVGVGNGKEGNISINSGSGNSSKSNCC
# Assay: pull-down; 1 μg GST fusion immobilized on magnetic glutathione beads, preloaded with 1.5 mM GTPγS; 10 μl in vitro translated ^35S-labeled protein added, 1 h at 23°C; 150 mM Tris pH 7.5, 1.5 mM MgCl2, 250 mM NaCl, 0.5% Triton X-100; SDS-PAGE and autoradiography
# Settings: one partner purified
binder,measurement,value
B1,fold binding with GTPγS against GDP,2.8 fold
